The values below come from paper PMC4336329 (PLoS ONE, 2015).

Structures are written as SMILES. The campaign covered roughly 310,000 compounds. About 14,000 (4.5%) showed an effect of 50% or more. The effect is printed as a negative number. The list shows a part of the results.
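Also: peak tail current of the secondary pulse compared with the same well before compound.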

The target in the assay is human ether-à-go-go-related gene (hERG) potassium channel (human, UniProt Q12809). The assay is described as follows: primary screen, population patch clamp on CHO cells stably expressing hERG.
human ether-à-go-go-related gene (hERG) potassium channel, sequence (Q12809 whole entry, looked up): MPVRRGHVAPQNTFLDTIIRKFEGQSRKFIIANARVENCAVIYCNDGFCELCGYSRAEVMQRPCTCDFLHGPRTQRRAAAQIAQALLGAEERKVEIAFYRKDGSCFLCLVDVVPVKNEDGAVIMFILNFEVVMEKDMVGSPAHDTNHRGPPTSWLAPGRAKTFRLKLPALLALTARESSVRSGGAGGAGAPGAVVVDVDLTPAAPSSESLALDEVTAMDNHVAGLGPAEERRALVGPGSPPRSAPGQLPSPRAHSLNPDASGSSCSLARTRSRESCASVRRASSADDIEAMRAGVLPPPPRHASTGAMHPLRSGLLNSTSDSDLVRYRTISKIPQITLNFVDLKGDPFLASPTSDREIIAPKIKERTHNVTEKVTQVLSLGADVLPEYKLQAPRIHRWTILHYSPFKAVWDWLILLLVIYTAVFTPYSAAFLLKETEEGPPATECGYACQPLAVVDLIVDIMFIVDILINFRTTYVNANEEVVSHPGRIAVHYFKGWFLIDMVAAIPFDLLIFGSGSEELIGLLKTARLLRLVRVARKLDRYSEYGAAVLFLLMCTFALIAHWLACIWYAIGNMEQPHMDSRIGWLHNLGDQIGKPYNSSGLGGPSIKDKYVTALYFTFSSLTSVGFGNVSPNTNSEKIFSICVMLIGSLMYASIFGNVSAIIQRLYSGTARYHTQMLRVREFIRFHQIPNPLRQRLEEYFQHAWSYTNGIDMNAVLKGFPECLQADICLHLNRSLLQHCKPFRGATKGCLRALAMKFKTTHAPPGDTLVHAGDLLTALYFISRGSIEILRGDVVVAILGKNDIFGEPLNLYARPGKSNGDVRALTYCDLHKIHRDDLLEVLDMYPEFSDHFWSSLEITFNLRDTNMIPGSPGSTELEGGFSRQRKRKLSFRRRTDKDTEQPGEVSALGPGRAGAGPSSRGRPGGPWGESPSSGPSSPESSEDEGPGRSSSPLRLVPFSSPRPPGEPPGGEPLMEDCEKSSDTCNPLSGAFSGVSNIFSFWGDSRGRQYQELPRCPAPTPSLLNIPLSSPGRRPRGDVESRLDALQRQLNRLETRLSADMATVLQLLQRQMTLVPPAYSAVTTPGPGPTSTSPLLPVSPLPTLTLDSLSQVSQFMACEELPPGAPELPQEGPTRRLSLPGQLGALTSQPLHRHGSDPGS
With `O=C(NCc1ccccc1)c1ccc(CN2CCC(Cc3ccccc3)CC2)cc1`, the “hERG current change (%, negative = inhibition) at 10uM” value is given as -70.3%.

Take `O=C(Cc1n[nH]c(=O)c2ccccc12)NCc1ccc(Cl)cc1`: the “hERG current change (%, negative = inhibition) at 10uM” value is given as -17.5%. As for `Cc1ccc2c(Cl)cc(Cl)c(OCC(=O)N3CCCC3)c2n1`, the “hERG current change (%, negative = inhibition) at 10uM” value is listed as -2.01%. The figure for `C=CCNC(=O)c1onc(CSc2ccc(C(C)C)cc2)c1C(=O)O` is 7.69%; for `O=C(c1cc([N+](=O)[O-])ccc1Cl)N1CCN(c2ccccc2)CC1` it is -6.43%; for `Cc1cc(C)n(C(=O)CCCC(=O)n2nc(C)cc2C)n1` it is -4.17%.

`CNC(=O)c1c(NC(=O)c2cc(-c3cc(C)c(C)cc3O)n[nH]2)sc2c1CCCC2`: the “hERG current change (%, negative = inhibition) at 10uM” value was determined as 12.2%. For the compound `COc1c2ccoc2c(OCC=C(C)C)c2oc(=O)ccc12`, the “hERG current change (%, negative = inhibition) at 10uM” value stood at 11.3%. For `COc1ccc(NC(=O)C(Cc2ccccc2)NC(=O)c2ccco2)cc1OC` (centres unmarked) the value was 7.59%; for `Cc1cc2cc(C)c3nnc(SCC(=O)Nc4ccc(S(=O)(=O)N5CCCCC5)cc4)n3c2cc1C`, -19.2%. Consider `Cc1cc(=O)[nH]c(SCC(=O)NCCOc2ccccc2)n1`, for which the “hERG current change (%, negative = inhibition) at 10uM” value is 1.39%. On to `O=C(NC(=S)NCc1cccnc1)c1ccccc1`, for which the “hERG current change (%, negative = inhibition) at 10uM” value is -6.56%.

With `COCCN(CC(=O)Nc1cccc(C)c1C)C(=O)c1ccc(-n2cccn2)cc1`, the “hERG current change (%, negative = inhibition) at 10uM” value is on record as -8.85%. For the compound `Cc1ccccc1-n1ncc2c(SCC(=O)NC3CCCC3)ncnc21`, the “hERG current change (%, negative = inhibition) at 10uM” value is reported as 2.9%. In the case of `Cc1cccc(C)c1NC(=O)COC(=O)CCC(=O)c1cccs1`, the “hERG current change (%, negative = inhibition) at 10uM” value is recorded as 2.29%.

On to `COC(=O)c1sccc1NC(=S)Nc1cc(C)cc(C)c1`, for which the “hERG current change (%, negative = inhibition) at 10uM” value was 7.24%. Turning to `CCc1nc(SCC(=O)Nc2ccnc3ccccc23)n[nH]1`, the “hERG current change (%, negative = inhibition) at 10uM” value came out at 5.73%. `O=C(Nc1ccccc1)c1nsnc1C(=O)Nc1ccccc1`: the “hERG current change (%, negative = inhibition) at 10uM” value is given as -24.8%. The figure for `Cc1nnc(SCC(=O)Nc2sc3c(c2C(=O)c2ccccc2)CCCC3)s1` is 18.2%; for `CN1C(=O)c2ccc(NC(=O)c3c(C(=O)O)cccc3[N+](=O)[O-])cc2C1=O` it is 4.81%. Turning to `CC(NC(=O)/C(=C\c1ccco1)NC(=O)c1ccco1)C(=O)O` (centres unmarked), the “hERG current change (%, negative = inhibition) at 10uM” value came to 14.8%. Regarding `COCCNC(=O)CN(Cc1ccccc1)S(=O)(=O)c1ccc2nc(C)sc2c1`, the “hERG current change (%, negative = inhibition) at 10uM” value is recorded as -2.94%. For the compound `COc1ccccc1CN1CCCC(N2CCN(c3ccccc3OC)CC2)C1` (centres unmarked), the “hERG current change (%, negative = inhibition) at 10uM” value is -11.9%. As to `O=C(Cc1ccccc1)N1CCN(C(=O)c2ccc([N+](=O)[O-])cc2)CC1`, the “hERG current change (%, negative = inhibition) at 10uM” value is -51%. As to `CCN(C(=S)Nc1cc(S(=O)(=O)N2CCOCC2)ccc1Cl)c1cccc2ccccc12`, the “hERG current change (%, negative = inhibition) at 10uM” value was -1.89%.

As for `CN(C(=O)CSc1cn(CC(=O)N2CCOCC2)c2ccccc12)c1ccccc1`, the “hERG current change (%, negative = inhibition) at 10uM” value was found to be 18.5%. For `CCOC(=O)/C=c1\s/c(=C\c2ccc(C(=O)OC)cc2)c(=O)n1CC(=O)Nc1ccccc1.Cl`, the “hERG current change (%, negative = inhibition) at 10uM” value is reported as 19.5%.

For `COc1ccc(OCCC(=O)NCCN2CCOCC2)cc1.Cl`, the “hERG current change (%, negative = inhibition) at 10uM” value is given as 12.7%. For the compound `Cc1c(CCCN)c2ccccc2n1Cc1ccccc1.Cl`, the “hERG current change (%, negative = inhibition) at 10uM” value is given as -16.7%.

Regarding `Cc1c(NC(=O)c2ccc(COc3ccc4ccccc4c3)o2)c(=O)n(-c2ccccc2)n1C`, the “hERG current change (%, negative = inhibition) at 10uM” value is -5.35%. In the case of `O=C(Nc1ccccn1)C1CCN(C(=O)c2ccc(F)cc2)CC1`, the “hERG current change (%, negative = inhibition) at 10uM” value amounted to 3.81%. As for `CC1(c2nnc(-c3ccccc3)o2)CC(c2ccc(F)cc2)=NO1` (centres unmarked), the “hERG current change (%, negative = inhibition) at 10uM” value is given as -18.8%. For the compound `COc1ccccc1CNC(=O)C1CCN(S(=O)(=O)c2ccc3c(c2)NC(=O)CO3)CC1`, the “hERG current change (%, negative = inhibition) at 10uM” value was 1.17%. Consider `CCn1c(NCCc2ccc(OC)c(OC)c2)nc2c1c(=O)n(C)c(=O)n2C`, for which the “hERG current change (%, negative = inhibition) at 10uM” value was 8.96%. The figure for `O=C(Nc1ccc(N2CCOCC2)cc1)c1cc(-n2cnnc2)ccc1Cl` is 17.6%; for `COc1ccc(CC(=O)N2CCCC(CNC(=O)c3ccccc3Cl)C2)cc1` (centres unmarked) it is -2.18%; for `Cn1c(CCNS(=O)(=O)c2ccccc2)nnc1SCc1cccnc1` it is 11.1%. For `Cc1c(Br)c([N+](=O)[O-])nn1CC(=O)NCc1ccccc1`, the “hERG current change (%, negative = inhibition) at 10uM” value was -2.99%.

As for `Cc1ccc(CNS(=O)(=O)c2ccc(CN3C(=O)c4cccnc4C3=O)s2)o1`, the “hERG current change (%, negative = inhibition) at 10uM” value is recorded as -4.36%. With `C=COCCNC(=O)C(=O)NC(C)C`, the “hERG current change (%, negative = inhibition) at 10uM” value is listed as -0.542%.

On to `COC(=O)C1=C(C)N(c2cccc3ccccc23)C(=O)C1`, for which the “hERG current change (%, negative = inhibition) at 10uM” value is on record as -6.64%.

Regarding `Cc1ccc(S(=O)(=O)N2CCCC2)cc1C(=O)NC1CCCCC1`, the “hERG current change (%, negative = inhibition) at 10uM” value worked out at 17.6%. Consider `COc1ccc(CN(C(=O)CCC(=O)N2CCCCC2)c2nccs2)cc1OC`, for which the “hERG current change (%, negative = inhibition) at 10uM” value is recorded as -5.31%. For the compound `CC1(C)Cc2c(sc3nc(NCCN4CCOCC4)n4ncnc4c23)CO1`, the “hERG current change (%, negative = inhibition) at 10uM” value was -5.72%.
